# Reference: the supplement of paper PMC3334620
# Whole data set: some 33,000 sequences, median “E-score (-0.5 to 0.5)” near -0.011, cut for the highest 2% near 0.28. The list shows a part of the results.
# Target: T1, Gcr1 (UniProt P07261)
# T1 sequence: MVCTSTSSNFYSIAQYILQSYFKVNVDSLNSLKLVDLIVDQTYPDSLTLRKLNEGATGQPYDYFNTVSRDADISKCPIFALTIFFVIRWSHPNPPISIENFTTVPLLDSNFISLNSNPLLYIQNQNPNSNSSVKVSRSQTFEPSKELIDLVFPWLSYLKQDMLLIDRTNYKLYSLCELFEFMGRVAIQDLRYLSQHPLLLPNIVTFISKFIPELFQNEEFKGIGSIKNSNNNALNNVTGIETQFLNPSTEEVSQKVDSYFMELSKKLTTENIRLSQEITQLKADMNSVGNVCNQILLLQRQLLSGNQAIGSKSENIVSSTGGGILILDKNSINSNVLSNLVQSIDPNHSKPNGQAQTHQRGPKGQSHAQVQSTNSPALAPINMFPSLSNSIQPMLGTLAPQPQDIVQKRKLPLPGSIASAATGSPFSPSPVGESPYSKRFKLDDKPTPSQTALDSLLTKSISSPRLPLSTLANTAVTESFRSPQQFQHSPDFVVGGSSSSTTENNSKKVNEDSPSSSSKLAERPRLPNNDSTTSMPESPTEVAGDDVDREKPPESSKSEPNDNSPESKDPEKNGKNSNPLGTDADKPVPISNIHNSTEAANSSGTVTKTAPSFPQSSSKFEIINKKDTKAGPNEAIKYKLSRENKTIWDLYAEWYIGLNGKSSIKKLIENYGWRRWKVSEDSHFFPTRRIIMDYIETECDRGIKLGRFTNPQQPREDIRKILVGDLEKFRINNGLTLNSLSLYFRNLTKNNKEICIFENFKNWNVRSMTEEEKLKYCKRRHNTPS
# Assay: PBM E-score (8-mer binding enrichment) (E-score (-0.5 to 0.5)); higher = stronger / more preferred TF binding; most listed sequences are background and not binding sites
# Conditions: protein concentration: 100 nM; construct: GST-full length
# Method in brief: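 GST-tagged yeast TFs (full-length or DNA-binding domain) were made by PURExpress in vitro transcription/translation and applied at about 100-200 nM to universal all-10-mer Agilent arrays. The arrays were made double-stranded by primer extension, on fresh or once-stripped slides. Bound protein was detected with fluorescent anti-GST, and scans were normalised with masliner. Each ungapped eight-base word, pooled with its reverse complement, received an E-score (modified Wilcoxon-Mann-Whitney statistic) from the Universal PBM Analysis Suite.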
row,Sequence,PBM E-score
1,ACACAGTA,0.0108
2,AAGTCTAG,0.0248
3,ACCATGAC,-0.0943
4,ATTGAACA,0.0317
5,ATACCCAG,0.137
6,CCCGAGAA,0.199
7,AGGTGACG,-0.0858
8,AAGAGTCG,-0.00583
9,ATATAACG,-0.174
10,CGTACGGC,-0.0842
11,CAATATAA,0.0242
12,TGCGAGCA,0.126
13,CGTGTAGA,0.128
14,CACGTCAC,-0.00164
15,GGGATCCA,0.347
16,CGGCCAGA,0.0223
17,ACTGTATG,-0.0177
18,GGTGACTA,-0.122
19,AACCCATT,0.179
20,CCTGATGC,-0.033
21,ACGGCTAG,-0.0903
22,CCTCTATA,0.266
23,ACGAAAAA,0.124
24,CCCCGCAG,0.0653
25,AAAGCTAG,-0.153

row,Sequence,PBM E-score
1,CTCGAGGC,-0.00152
2,CGGCTAAG,-0.117
3,CCGGCACG,0.117
4,GGGTCCCA,0.24
5,CGCAGGCC,-0.201
6,GAAACGGA,0.102
7,GGCCACAA,0.176
8,CGAAGCCC,0.268
9,AAGCAGTG,-0.14
10,ATATGAGG,0.033
11,ATTGTCGC,-0.0817
12,CGCGCGTC,0.122
13,CGCAGCGA,0.22
14,CTAAGCTA,-0.202
15,AAGTCACC,-0.11
16,CTTCCTCC,0.189
17,AGGTTCAG,-0.265
18,CTTAAAAA,0.199
19,AACGCGTG,0.139
20,GGAGCTGA,0.068
21,ACTGCTCC,-0.115
22,AGTCGGGC,-0.0557
23,ACCAACCC,-0.294
24,CGCTCCCG,0.0567
25,CTGTGCCA,-0.106

row,Sequence,PBM E-score
1,CATGGACG,0.0664
2,CGCGCCGC,0.193
3,AGAATTAT,0.0729
4,ACAGCTGA,-0.195
5,ACGTCGGA,-0.0789
6,CGAAATCG,-0.0258
7,CTGAACAA,0.0728
8,CTTAGATC,0.0158
9,GGATCGGA,-0.0291
10,GAATGGAA,0.225
11,TGCAAGAA,0.152
12,CCTCCGAG,-0.26
13,CCAGAGGA,0.101
14,AAATCAGG,0.129
15,ACACGAGG,-0.00485
16,CCGAACGC,0.149
17,GATGGTCA,-0.0592
18,AAGGGTAA,-0.0838
19,ATATAAGC,0.121
20,TAATGGGA,0.108
21,ACATGCTC,-0.0853
22,TAGCAGCA,0.136
23,CCGACGCG,0.0251
24,TCATCCGA,-0.166
25,ACGATATA,0.0445

row,Sequence,PBM E-score
1,CACAGAAG,0.0109
2,CCTCCAAC,-0.0666
3,GGCAAAAC,-0.0284
4,CACGAAAC,-0.073
5,CCGTGCCA,-0.0133
6,GCTGGTGA,-0.0692
7,CCTAAGCG,-0.102
8,GCGACCTA,0.116
9,AGGACAAC,-0.0833
10,GCAATACC,-0.0958
11,TCTATTAA,0.185
12,AGTCCAAG,-0.147
13,GGAAAGAC,-0.105
14,GAAATTTA,-0.1
15,ATAAAAGG,0.126
16,CTACTACA,0.137
17,GAATTATA,0.192
18,ACTATGAG,-0.239
19,CGATTGAG,-0.208
20,CAACAGTG,0.0107
21,ACACCCCA,0.00448
22,ATCCTCCA,-0.0323
23,TCTGTTCA,0.00349
24,CTATAGGA,0.0459
25,ACGACTAC,-0.176

row,Sequence,PBM E-score
1,GCTGTGAC,-0.186
2,ACCACGGC,-0.0133
3,CGTTCGAG,-0.0773
4,AGGAGTCA,-0.0283
5,CGACGACA,0.0156
6,GGAAGAAC,-0.156
7,AATGTCGA,0.144
8,AGTGTCGA,-0.106
9,GCATTGTA,-0.0559
10,GACTTATA,0.0402
11,ATCTCGGA,0.0205
12,ACACTACG,-0.104
13,CAATTGTC,-0.307
14,ACCCACGG,-0.122
15,AGGTTGTA,-0.0436
16,CCGCCTCG,0.0287
17,ACGTGGCA,-0.0193
18,AAATGCGA,0.224
19,TTCATAAA,0.0264
20,GGCGACGA,0.0858
21,CGGGCTTC,0.415
22,ACAGGAAC,0.144
23,CACGAGTG,-0.109
24,GAAATAAC,0.0241
25,AACAGTGC,-0.142

row,Sequence,PBM E-score
1,GAGACAAA,-0.101
2,CTTAATAA,0.224
3,ACGGCTAA,0.00728
4,GCAGTCGA,-0.026
5,CGCGCCCA,0.244
6,TAACTTAA,0.0035
7,TATCAACA,0.0417
8,GGCGGTGA,-0.113
9,ACCTTTAC,0.0646
10,CTCAAAGA,0.0324
11,ATATGCAT,-0.0625
12,GTATAGTA,-0.141
13,CAGGTCCC,0.0086
14,AGCACATG,-0.0122
15,AGAGTGTC,-0.0239
16,ACAGAAAG,-0.135
17,CAAGGACA,-0.161
18,AACAACAG,-0.236
19,ATATCTTG,0.0748
20,GGGCACTA,-0.00334
21,ACTATAAA,0.0982
22,AATCGACG,-0.231
23,GAATATAC,-0.236
24,CGATTGGA,0.135
25,GTCGTCAA,0.149

row,Sequence,PBM E-score
1,AGTTCAGC,-0.0738
2,ATGAAGTA,-0.106
3,TAAAAATA,0.24
4,AATCTCGT,0.00556
5,CCTCACAA,-0.0108
6,ATATGGAA,0.128
7,CGTCAAAA,0.185
8,GTGGTAAC,-0.0653
9,AGCGCTTG,0.0346
10,ACCGGACG,0.32
11,AAGAATGC,0.0371
12,CGTATTGA,0.0279
13,ACCCTCCG,-0.333
14,CATAGTCG,-0.031
15,CTGGTAGC,0.217
16,AAGGGAAC,0.0126
17,ACGGCCGT,-0.031
18,GGACCGAA,0.0294
19,ATCTAAGA,0.235
20,ACGTAACA,-0.0832
21,CGCAATAA,0.0471
22,CATAACGA,0.00907
